Some of the results follow. Cut-off read from the data, not from the text of the source: active = 3.2 or more and inactive = the rest. Most of these values are background signal.
target: SHP2 C-SH2 domain E139D; assay: enrichment score (SH2-bound / input frequency) (ratio); bacterial display of known human phosphotyrosine sites (pTyr-Var adds point mutants) read by sequencing; higher = stronger binding; tyrosines were phosphorylated by kinases first; conditions: peptide library: pTyr-Var
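Note: displayed peptides selected on beads carrying the immobilized SH2 domain, with library peptides lacking any tyrosine serving as negative controls.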

Enrichment score, inactive:
FGLDHYQCDCT [PTGS1_Y54_R53H] 1.37
TLNFFYQQVKS [PTK2_Y148] 1.21
SETDDYAEIID [PTK2_Y397] 0.421
ERNARYRTPKI [PTK2B_Y699] 0.321
ERNAHYRTPKI [PTK2B_Y699_R698H] 0.612
LDPMVYMNDTS [PTK2B_Y834_K838T] 1.04
ECKLLYSRKEG [PTPN11_Y263] 0.666
ECKHLYSRKEG [PTPN11_Y263_L261H] 1.29
ECKLFYSRKEG [PTPN11_Y263_L262F] 0.423
ECKLLYSQKEG [PTPN11_Y263_R265Q] 0.816
KNKNRYKNILP [PTPN11_Y279] 0.777
KNKNRSKNILP [PTPN11_Y279_Y279S] 0.48
EPVSDYINANI [PTPN11_Y304] 0.624
EPVSDYINADI [PTPN11_Y304_N308D] 0.826
PTEAQYRFIFM [PTPN11_Y511_Q506P_YF] 0.458
RTEAQYRFIFM [PTPN11_Y511_Q506R_YF] 0.611
QTEAEYRFIYM [PTPN11_Y511_Q510E] 0.421
QYRFIYMAVQH [PTPN11_Y515] 1.06
EYRFIYMAVQH [PTPN11_Y515_Q510E] 1.86

target: SHP2 C-SH2 domain wild-type; assay: as above; conditions: peptide library: pTyr-Var

Enrichment score, inactive:
FGLDHYQCDCT [PTGS1_Y54_R53H] 1.24
TLNFFYQQVKS [PTK2_Y148] 1.41
SETDDYAEIID [PTK2_Y397] 0.463
ERNARYRTPKI [PTK2B_Y699] 0.39
ERNAHYRTPKI [PTK2B_Y699_R698H] 0.567
LDPMVYMNDTS [PTK2B_Y834_K838T] 1.05
ECKLLYSRKEG [PTPN11_Y263] 0.657
ECKHLYSRKEG [PTPN11_Y263_L261H] 1.14
ECKLFYSRKEG [PTPN11_Y263_L262F] 0.397
ECKLLYSQKEG [PTPN11_Y263_R265Q] 0.843
KNKNRYKNILP [PTPN11_Y279] 0.64
KNKNRSKNILP [PTPN11_Y279_Y279S] 0.573
EPVSDYINANI [PTPN11_Y304] 0.779
EPVSDYINADI [PTPN11_Y304_N308D] 0.787
PTEAQYRFIFM [PTPN11_Y511_Q506P_YF] 0.58
RTEAQYRFIFM [PTPN11_Y511_Q506R_YF] 0.842
QTEAEYRFIYM [PTPN11_Y511_Q510E] 0.768
QYRFIYMAVQH [PTPN11_Y515] 1.41
EYRFIYMAVQH [PTPN11_Y515_Q510E] 1.47

target: SHP2 N-SH2 domain L43F; assay: as above; conditions: peptide library: pTyr-Var

Enrichment score, inactive:
FGLDHYQCDCT [PTGS1_Y54_R53H] 1.32
TLNFFYQQVKS [PTK2_Y148] 1.32
SETDDYAEIID [PTK2_Y397] 0.447
ERNARYRTPKI [PTK2B_Y699] 0.406
ERNAHYRTPKI [PTK2B_Y699_R698H] 0.502
LDPMVYMNDTS [PTK2B_Y834_K838T] 1.2
ECKLLYSRKEG [PTPN11_Y263] 0.439
ECKHLYSRKEG [PTPN11_Y263_L261H] 1.26
ECKLFYSRKEG [PTPN11_Y263_L262F] 0.401
ECKLLYSQKEG [PTPN11_Y263_R265Q] 0.6
KNKNRYKNILP [PTPN11_Y279] 0.839
KNKNRSKNILP [PTPN11_Y279_Y279S] 0.411
EPVSDYINANI [PTPN11_Y304] 0.689
EPVSDYINADI [PTPN11_Y304_N308D] 0.842
PTEAQYRFIFM [PTPN11_Y511_Q506P_YF] 0.404
RTEAQYRFIFM [PTPN11_Y511_Q506R_YF] 0.72
QTEAEYRFIYM [PTPN11_Y511_Q510E] 0.547
QYRFIYMAVQH [PTPN11_Y515] 1.01
EYRFIYMAVQH [PTPN11_Y515_Q510E] 1.51

target: SHP2 N-SH2 domain T42A; assay: as above; conditions: peptide library: pTyr-Var

Enrichment score, inactive:
FGLDHYQCDCT [PTGS1_Y54_R53H] 1.21
TLNFFYQQVKS [PTK2_Y148] 1.18
SETDDYAEIID [PTK2_Y397] 0.448
ERNARYRTPKI [PTK2B_Y699] 0.366
ERNAHYRTPKI [PTK2B_Y699_R698H] 0.536
LDPMVYMNDTS [PTK2B_Y834_K838T] 1.39
ECKLLYSRKEG [PTPN11_Y263] 0.579
ECKHLYSRKEG [PTPN11_Y263_L261H] 1.08
ECKLFYSRKEG [PTPN11_Y263_L262F] 0.413
ECKLLYSQKEG [PTPN11_Y263_R265Q] 0.766
KNKNRYKNILP [PTPN11_Y279] 0.918
KNKNRSKNILP [PTPN11_Y279_Y279S] 0.325
EPVSDYINANI [PTPN11_Y304] 0.62
EPVSDYINADI [PTPN11_Y304_N308D] 0.61
PTEAQYRFIFM [PTPN11_Y511_Q506P_YF] 0.478
RTEAQYRFIFM [PTPN11_Y511_Q506R_YF] 0.659
QTEAEYRFIYM [PTPN11_Y511_Q510E] 0.417
QYRFIYMAVQH [PTPN11_Y515] 1.38
EYRFIYMAVQH [PTPN11_Y515_Q510E] 1.46

target: SHP2 N-SH2 domain T52S; assay: as above; conditions: peptide library: pTyr-Var

Enrichment score, inactive:
FGLDHYQCDCT [PTGS1_Y54_R53H] 1.22
TLNFFYQQVKS [PTK2_Y148] 1.31
SETDDYAEIID [PTK2_Y397] 0.5
ERNARYRTPKI [PTK2B_Y699] 0.315
ERNAHYRTPKI [PTK2B_Y699_R698H] 0.565
LDPMVYMNDTS [PTK2B_Y834_K838T] 0.807
ECKLLYSRKEG [PTPN11_Y263] 0.693
ECKHLYSRKEG [PTPN11_Y263_L261H] 1.21
ECKLFYSRKEG [PTPN11_Y263_L262F] 0.606
ECKLLYSQKEG [PTPN11_Y263_R265Q] 0.659
KNKNRYKNILP [PTPN11_Y279] 0.728
KNKNRSKNILP [PTPN11_Y279_Y279S] 0.552
EPVSDYINANI [PTPN11_Y304] 0.558
EPVSDYINADI [PTPN11_Y304_N308D] 0.701
PTEAQYRFIFM [PTPN11_Y511_Q506P_YF] 0.565
RTEAQYRFIFM [PTPN11_Y511_Q506R_YF] 0.327
QTEAEYRFIYM [PTPN11_Y511_Q510E] 0.43
QYRFIYMAVQH [PTPN11_Y515] 1.07
EYRFIYMAVQH [PTPN11_Y515_Q510E] 1.33

target: SHP2 N-SH2 domain wild-type; assay: as above; conditions: peptide library: pTyr-Var

Enrichment score, inactive:
FGLDHYQCDCT [PTGS1_Y54_R53H] 1.16
TLNFFYQQVKS [PTK2_Y148] 1.34
SETDDYAEIID [PTK2_Y397] 0.618
ERNARYRTPKI [PTK2B_Y699] 0.342
ERNAHYRTPKI [PTK2B_Y699_R698H] 0.685
LDPMVYMNDTS [PTK2B_Y834_K838T] 1.01
ECKLLYSRKEG [PTPN11_Y263] 0.537
ECKHLYSRKEG [PTPN11_Y263_L261H] 0.978
ECKLFYSRKEG [PTPN11_Y263_L262F] 0.358
ECKLLYSQKEG [PTPN11_Y263_R265Q] 0.979
KNKNRYKNILP [PTPN11_Y279] 0.904
KNKNRSKNILP [PTPN11_Y279_Y279S] 0.332
EPVSDYINANI [PTPN11_Y304] 0.68
EPVSDYINADI [PTPN11_Y304_N308D] 0.945
PTEAQYRFIFM [PTPN11_Y511_Q506P_YF] 0.494
RTEAQYRFIFM [PTPN11_Y511_Q506R_YF] 1.04
QTEAEYRFIYM [PTPN11_Y511_Q510E] 0.52
QYRFIYMAVQH [PTPN11_Y515] 1.66
EYRFIYMAVQH [PTPN11_Y515_Q510E] 1.71

From the supplement of paper PMC10369915
